# The supplement of paper PMC6828730
# This is one part of the list. Most values come without repeats; read them as rough.
# Test system: hiPSC-derived cardiomyocytes
# Test: time to death of most cells in well after compound addition (days); higher = less cardiotoxic
# Settings: screen: 1; 10 µM
row,Structure (SMILES),time to death of most cells in well
1,COc1cc(Nc2c(C#N)cnc3cc(OCCCN4CCN(C)CC4)c(OC)cc23)c(Cl)cc1Cl [Bosutinib (SKI-606)],3
2,"CN1CCN(c2ccc3nc(-c4c(N)c5c(F)cccc5[nH]c4=O)[nH]c3c2)CC1 [Dovitinib (TKI-258, CHIR-258)]",> 7
3,Cc1cn(-c2cc(NC(=O)c3ccc(C)c(Nc4nccc(-c5cccnc5)n4)c3)cc(C(F)(F)F)c2)cn1 [Nilotinib (AMN-107)],> 7
4,CCOc1cc2ncc(C#N)c(Nc3ccc(F)c(Cl)c3)c2cc1NC(=O)/C=C/CN(C)C [Pelitinib (EKB-569)],4.5
5,CNC(=O)CN1CCC(Oc2cc3c(Nc4cccc(Cl)c4F)ncnc3cc2OC)CC1 [Sapitinib (AZD8931)],> 7
6,CS(=O)(=O)c1ccc(-c2cnc(N)c(C(=O)Nc3ccccc3)n2)cc1,> 7
7,C[C@@H](Oc1cc(-n2cnc3ccc(CN4CCN(C)CC4)cc32)sc1C(N)=O)c1ccccc1C(F)(F)F,> 7
8,CC(C)(O)CNc1ncc(-c2ccnc(Nc3ccnc(Cl)c3)n2)c(CC2CC2)n1,2.5
9,CN(C[C@@H]1COCCO1)S(=O)(=O)Nc1ccc2ccc3ncc(-c4cnn(C)c4)cc3c(=O)c2c1,3.5
10,COC(=O)Nc1ccc(-c2nc(N3CCOCC3)c3cnn(C4CCN(C(=O)OC)CC4)c3n2)cc1,6
11,C=CC(=O)Nc1cccc(Nc2nc(Nc3ccc(OCCOC)cc3)ncc2F)c1,> 7
12,CCN1C(=CC(C)=O)Sc2ccc(OC)cc21,> 7
13,O=C(O)c1ccc(Nc2ncc3c(n2)-c2ccc(Cl)cc2C(c2c(F)cccc2F)=NC3)cc1,> 7
14,NC(=O)c1ccc(-c2nc(-c3ccc4c(c3)OCCO4)c(-c3ccccn3)[nH]2)cc1,5
15,O=C(/C=C/c1ccc2ccccc2n1)c1ccncc1,3
16,CCn1c2ccccc2c2cc(Nc3ccnc(NCCCN4CCOCC4)n3)ccc21,1
17,COc1cc2nccc(Oc3ccc(NC(=O)C4(C(=O)Nc5ccc(F)cc5)CC4)cc3)c2cc1OC [Cabozantinib malate (XL184)],> 7
18,Nc1cccc(S(=O)(=O)N2CCCN(S(=O)(=O)c3ccc4c(c3)OCCO4)CC2)c1,> 7
19,CN1CCN(S(=O)(=O)c2ccc(-c3cnc(N)c(C(=O)Nc4cccnc4)n3)cc2)CC1,2

row,Structure (SMILES),time to death of most cells in well
1,CC(C)(C)n1nc(-c2ccc(Cl)cc2)c2c(N)ncnc21,2
2,C[C@@H](NC(=O)c1ncnc(N)c1Cl)c1ncc(C(=O)Nc2cc(C(F)(F)F)c(Cl)cn2)s1,> 7
3,CNC(=O)c1ccc(C)c(-n2c(C)cc(OCc3ccc(F)cc3F)c(Br)c2=O)c1,> 7
4,OCCn1cc(-c2ccc3c(c2)CC/C3=N\O)c(-c2ccncc2)n1,> 7
5,CNC(=O)c1cc(COc2nnc(Nc3ccc(Cl)cc3)c3ccoc23)ccn1 [Telatinib],> 7
6,CC(C)(CCCCCC(O)CCCCCC(C)(C)C(=O)O)C(=O)O,> 7
7,N#CC1(c2ccc(NC(=O)c3cccnc3NCc3ccncc3)cc2)CCCC1 [Apatinib],> 7
8,CCN1CCN(Cc2ccc(Nc3ncc(F)c(-c4cc(F)c5nc(C)n(C(C)C)c5c4)n3)nc2)CC1,3
9,CC(C)CC(=O)Nc1n[nH]c2c1CN(C(=O)C1CCN(C)CC1)C2(C)C,1.5
10,O=C(Nc1ccc(OC(F)(F)F)cc1)c1sccc1NCc1ccnc2ccccc12,1.5
11,CN(C)Cc1cccc(N=C(c2ccccc2)c2c(O)[nH]c3cc(C(=O)N(C)C)ccc23)c1,> 7
12,O=C(Nc1cccc(Nc2ncc(Br)c(NCCc3cnc[nH]3)n2)c1)N1CCCC1,5
13,Cc1ccc(C(=O)Nc2cccc(C(F)(F)F)c2)cc1Nc1nc(-c2cccnc2)nc2c1cnn2C,6
14,COc1nccc(-c2c(-c3ccc(F)cc3)ncn2C2CCC(O)CC2)n1 (stereo unspecified),> 7
15,CCN(CCO)CCCOc1ccc2c(Nc3cc(CC(=O)Nc4cccc(F)c4)[nH]n3)ncnc2c1 [Barasertib (AZD1152-HQPA)],4
16,O=S(=O)(NCCNCC=Cc1ccc(Br)cc1)c1cccc2cnccc12,6.5
17,CNc1nc(Nc2cn(C(C)(C)C#N)nc2C)ncc1C(F)(F)F,3
18,C=CC(=O)N1CCC[C@@H](n2nc(-c3ccc(Oc4ccccc4)cc3)c3c(N)ncnc32)C1,> 7
19,N#CC(=Cc1ccc(O)c(O)c1)C(=O)NCc1ccccc1 [AG-490 (Tyrphostin B42)],> 7

# Test system: hiPSC-derived cardiomyocytes
# Test: time to death of most cells in well after compound addition (days); higher = less cardiotoxic; extreme values may be limits of the assay
# Settings: screen: 2; 10 µM
row,Structure (SMILES),time to death of most cells in well
1,COc1cc(Nc2c(C#N)cnc3cc(OCCCN4CCN(C)CC4)c(OC)cc23)c(Cl)cc1Cl [Bosutinib (SKI-606)],3.5
2,"CN1CCN(c2ccc3nc(-c4c(N)c5c(F)cccc5[nH]c4=O)[nH]c3c2)CC1 [Dovitinib (TKI-258, CHIR-258)]",2.5
3,Cc1cn(-c2cc(NC(=O)c3ccc(C)c(Nc4nccc(-c5cccnc5)n4)c3)cc(C(F)(F)F)c2)cn1 [Nilotinib (AMN-107)],> 7
4,CCOc1cc2ncc(C#N)c(Nc3ccc(F)c(Cl)c3)c2cc1NC(=O)/C=C/CN(C)C [Pelitinib (EKB-569)],1.5
5,CNC(=O)CN1CCC(Oc2cc3c(Nc4cccc(Cl)c4F)ncnc3cc2OC)CC1 [Sapitinib (AZD8931)],6
6,CS(=O)(=O)c1ccc(-c2cnc(N)c(C(=O)Nc3ccccc3)n2)cc1,> 7
7,C[C@@H](Oc1cc(-n2cnc3ccc(CN4CCN(C)CC4)cc32)sc1C(N)=O)c1ccccc1C(F)(F)F,> 7
8,CC(C)(O)CNc1ncc(-c2ccnc(Nc3ccnc(Cl)c3)n2)c(CC2CC2)n1,2
9,CN(C[C@@H]1COCCO1)S(=O)(=O)Nc1ccc2ccc3ncc(-c4cnn(C)c4)cc3c(=O)c2c1,6
10,COC(=O)Nc1ccc(-c2nc(N3CCOCC3)c3cnn(C4CCN(C(=O)OC)CC4)c3n2)cc1,4.5
11,C=CC(=O)Nc1cccc(Nc2nc(Nc3ccc(OCCOC)cc3)ncc2F)c1,> 7
12,CCN1C(=CC(C)=O)Sc2ccc(OC)cc21,> 7
13,O=C(O)c1ccc(Nc2ncc3c(n2)-c2ccc(Cl)cc2C(c2c(F)cccc2F)=NC3)cc1,> 7
14,NC(=O)c1ccc(-c2nc(-c3ccc4c(c3)OCCO4)c(-c3ccccn3)[nH]2)cc1,> 7
15,O=C(/C=C/c1ccc2ccccc2n1)c1ccncc1,0.5
16,CCn1c2ccccc2c2cc(Nc3ccnc(NCCCN4CCOCC4)n3)ccc21,1
17,COc1cc2nccc(Oc3ccc(NC(=O)C4(C(=O)Nc5ccc(F)cc5)CC4)cc3)c2cc1OC [Cabozantinib malate (XL184)],> 7
18,Nc1cccc(S(=O)(=O)N2CCCN(S(=O)(=O)c3ccc4c(c3)OCCO4)CC2)c1,> 7
19,CN1CCN(S(=O)(=O)c2ccc(-c3cnc(N)c(C(=O)Nc4cccnc4)n3)cc2)CC1,1.5

row,Structure (SMILES),time to death of most cells in well
1,CC(C)(C)n1nc(-c2ccc(Cl)cc2)c2c(N)ncnc21,1.5
2,C[C@@H](NC(=O)c1ncnc(N)c1Cl)c1ncc(C(=O)Nc2cc(C(F)(F)F)c(Cl)cn2)s1,> 7
3,CNC(=O)c1ccc(C)c(-n2c(C)cc(OCc3ccc(F)cc3F)c(Br)c2=O)c1,6
4,OCCn1cc(-c2ccc3c(c2)CC/C3=N\O)c(-c2ccncc2)n1,> 7
5,CNC(=O)c1cc(COc2nnc(Nc3ccc(Cl)cc3)c3ccoc23)ccn1 [Telatinib],> 7
6,CC(C)(CCCCCC(O)CCCCCC(C)(C)C(=O)O)C(=O)O,> 7
7,N#CC1(c2ccc(NC(=O)c3cccnc3NCc3ccncc3)cc2)CCCC1 [Apatinib],6.5
8,CCN1CCN(Cc2ccc(Nc3ncc(F)c(-c4cc(F)c5nc(C)n(C(C)C)c5c4)n3)nc2)CC1,0.5
9,CC(C)CC(=O)Nc1n[nH]c2c1CN(C(=O)C1CCN(C)CC1)C2(C)C,2
10,O=C(Nc1ccc(OC(F)(F)F)cc1)c1sccc1NCc1ccnc2ccccc12,> 7
11,CN(C)Cc1cccc(N=C(c2ccccc2)c2c(O)[nH]c3cc(C(=O)N(C)C)ccc23)c1,> 7
12,O=C(Nc1cccc(Nc2ncc(Br)c(NCCc3cnc[nH]3)n2)c1)N1CCCC1,> 7
13,Cc1ccc(C(=O)Nc2cccc(C(F)(F)F)c2)cc1Nc1nc(-c2cccnc2)nc2c1cnn2C,> 7
14,COc1nccc(-c2c(-c3ccc(F)cc3)ncn2C2CCC(O)CC2)n1 (stereo unspecified),> 7
15,CCN(CCO)CCCOc1ccc2c(Nc3cc(CC(=O)Nc4cccc(F)c4)[nH]n3)ncnc2c1 [Barasertib (AZD1152-HQPA)],3
16,O=S(=O)(NCCNCC=Cc1ccc(Br)cc1)c1cccc2cnccc12,5
17,CNc1nc(Nc2cn(C(C)(C)C#N)nc2C)ncc1C(F)(F)F,1
18,C=CC(=O)N1CCC[C@@H](n2nc(-c3ccc(Oc4ccccc4)cc3)c3c(N)ncnc32)C1,5.5
19,N#CC(=Cc1ccc(O)c(O)c1)C(=O)NCc1ccccc1 [AG-490 (Tyrphostin B42)],> 7
